# Measured values published in article PMC3646048.
# Protein sequences, listed by entry. Tags and fused reporters are not part of them. Residues count along the entry.
# UniProt P48436: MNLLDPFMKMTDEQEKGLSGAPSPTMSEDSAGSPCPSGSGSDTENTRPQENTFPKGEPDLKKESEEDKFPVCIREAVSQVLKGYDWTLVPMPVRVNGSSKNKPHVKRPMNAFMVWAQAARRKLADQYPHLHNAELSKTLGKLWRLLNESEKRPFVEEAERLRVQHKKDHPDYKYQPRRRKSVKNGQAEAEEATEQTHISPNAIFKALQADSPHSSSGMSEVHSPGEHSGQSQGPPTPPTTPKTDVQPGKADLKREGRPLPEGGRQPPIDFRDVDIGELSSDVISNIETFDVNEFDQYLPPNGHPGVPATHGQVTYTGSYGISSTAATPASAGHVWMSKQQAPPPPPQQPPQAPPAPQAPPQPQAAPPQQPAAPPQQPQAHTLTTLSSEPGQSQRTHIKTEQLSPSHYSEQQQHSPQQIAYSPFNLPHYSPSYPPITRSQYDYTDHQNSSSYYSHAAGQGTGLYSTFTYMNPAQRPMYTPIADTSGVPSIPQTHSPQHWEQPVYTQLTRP
# UniProt Q8VIM5: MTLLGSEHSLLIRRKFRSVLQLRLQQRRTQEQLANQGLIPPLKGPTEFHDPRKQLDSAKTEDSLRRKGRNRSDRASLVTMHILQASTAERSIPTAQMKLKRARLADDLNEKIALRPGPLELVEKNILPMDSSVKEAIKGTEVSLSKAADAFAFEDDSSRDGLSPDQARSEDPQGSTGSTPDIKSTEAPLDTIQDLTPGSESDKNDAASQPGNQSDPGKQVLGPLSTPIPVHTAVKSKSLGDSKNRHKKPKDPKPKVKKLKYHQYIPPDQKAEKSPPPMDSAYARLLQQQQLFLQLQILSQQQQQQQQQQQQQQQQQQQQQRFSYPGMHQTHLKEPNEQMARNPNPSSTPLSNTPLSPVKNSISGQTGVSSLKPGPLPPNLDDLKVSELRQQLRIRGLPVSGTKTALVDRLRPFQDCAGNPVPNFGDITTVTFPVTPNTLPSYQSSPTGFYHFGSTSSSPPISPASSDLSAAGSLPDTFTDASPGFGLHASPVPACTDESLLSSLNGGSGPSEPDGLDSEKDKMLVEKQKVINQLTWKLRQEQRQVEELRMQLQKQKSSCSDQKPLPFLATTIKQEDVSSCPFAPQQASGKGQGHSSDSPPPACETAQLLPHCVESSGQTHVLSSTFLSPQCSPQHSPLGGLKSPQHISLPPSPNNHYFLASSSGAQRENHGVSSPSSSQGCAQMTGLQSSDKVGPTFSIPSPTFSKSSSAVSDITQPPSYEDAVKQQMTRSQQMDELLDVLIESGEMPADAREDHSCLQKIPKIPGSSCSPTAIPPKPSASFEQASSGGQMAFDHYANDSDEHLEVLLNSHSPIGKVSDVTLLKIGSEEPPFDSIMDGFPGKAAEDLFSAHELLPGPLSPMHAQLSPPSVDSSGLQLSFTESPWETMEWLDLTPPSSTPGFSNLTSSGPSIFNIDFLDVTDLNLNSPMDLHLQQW
# SOX9 clone clA45 (amino acids 1-168) (Q04887, residues 1-168): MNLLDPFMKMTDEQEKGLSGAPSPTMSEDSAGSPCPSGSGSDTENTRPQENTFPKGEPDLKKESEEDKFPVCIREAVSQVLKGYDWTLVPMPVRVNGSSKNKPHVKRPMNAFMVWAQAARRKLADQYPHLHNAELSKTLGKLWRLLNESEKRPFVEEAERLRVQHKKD
# SOX9 clone clA47 (amino acids 1-163) (Q04887, residues 1-163): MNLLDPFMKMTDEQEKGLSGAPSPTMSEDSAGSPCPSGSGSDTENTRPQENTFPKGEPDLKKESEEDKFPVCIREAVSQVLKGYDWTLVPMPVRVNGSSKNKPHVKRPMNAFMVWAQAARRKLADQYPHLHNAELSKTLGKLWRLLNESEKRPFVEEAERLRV
# UniProt O54941: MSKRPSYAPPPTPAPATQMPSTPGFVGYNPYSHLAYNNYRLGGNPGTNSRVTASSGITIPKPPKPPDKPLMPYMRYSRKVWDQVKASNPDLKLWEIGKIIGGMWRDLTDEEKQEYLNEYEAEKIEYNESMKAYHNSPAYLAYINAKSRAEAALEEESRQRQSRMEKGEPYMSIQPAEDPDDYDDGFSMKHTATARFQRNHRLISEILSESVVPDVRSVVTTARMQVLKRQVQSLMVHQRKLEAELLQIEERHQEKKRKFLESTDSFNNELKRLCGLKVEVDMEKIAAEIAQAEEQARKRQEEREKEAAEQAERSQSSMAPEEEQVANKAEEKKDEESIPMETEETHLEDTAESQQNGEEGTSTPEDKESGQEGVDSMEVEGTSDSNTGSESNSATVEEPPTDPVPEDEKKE
# No constants are given. Whether binding was seen depends on the method and setting. For some of these results: Binding seen in cells or lysates may run through a third protein. Some results given as binding are weak or reduced against the parent protein; the word gives no strength. For some of these results: Where a sequence is shown, tags or fusion partners need not be part of it.
# T1: HA-tagged TSHZ3 full length (UniProt Q8CGV9)
# T1 sequence: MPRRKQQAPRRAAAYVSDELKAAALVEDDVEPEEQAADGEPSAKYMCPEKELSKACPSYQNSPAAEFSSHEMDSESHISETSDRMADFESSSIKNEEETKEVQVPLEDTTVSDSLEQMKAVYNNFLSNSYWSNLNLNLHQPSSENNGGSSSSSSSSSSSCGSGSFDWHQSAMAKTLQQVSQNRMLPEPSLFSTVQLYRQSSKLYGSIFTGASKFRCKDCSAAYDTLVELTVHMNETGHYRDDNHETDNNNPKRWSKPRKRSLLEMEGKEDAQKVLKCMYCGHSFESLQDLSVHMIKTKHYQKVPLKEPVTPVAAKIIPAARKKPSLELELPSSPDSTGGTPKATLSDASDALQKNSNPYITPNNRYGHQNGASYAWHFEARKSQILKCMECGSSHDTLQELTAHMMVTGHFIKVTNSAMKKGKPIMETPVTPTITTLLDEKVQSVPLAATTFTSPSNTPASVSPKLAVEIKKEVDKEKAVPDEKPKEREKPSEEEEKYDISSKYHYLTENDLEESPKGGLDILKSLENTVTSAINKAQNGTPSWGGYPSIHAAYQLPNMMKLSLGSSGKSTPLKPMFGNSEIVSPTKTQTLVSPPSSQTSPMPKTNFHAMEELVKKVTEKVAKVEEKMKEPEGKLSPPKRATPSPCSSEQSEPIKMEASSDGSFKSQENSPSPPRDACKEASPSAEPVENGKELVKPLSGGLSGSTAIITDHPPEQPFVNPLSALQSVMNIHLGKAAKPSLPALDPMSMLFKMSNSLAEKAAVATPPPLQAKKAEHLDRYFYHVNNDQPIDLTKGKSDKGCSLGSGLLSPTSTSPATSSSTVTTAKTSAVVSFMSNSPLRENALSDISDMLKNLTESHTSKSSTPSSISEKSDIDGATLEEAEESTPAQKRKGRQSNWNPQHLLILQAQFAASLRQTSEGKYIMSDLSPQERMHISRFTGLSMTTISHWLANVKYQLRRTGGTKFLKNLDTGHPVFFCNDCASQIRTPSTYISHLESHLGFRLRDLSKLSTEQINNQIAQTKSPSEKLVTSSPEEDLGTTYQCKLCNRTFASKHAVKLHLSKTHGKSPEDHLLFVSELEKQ
# T2: TSHZ3 (bait of the yeast two-hybrid screen) (UniProt Q8CGV9)
# T2 sequence: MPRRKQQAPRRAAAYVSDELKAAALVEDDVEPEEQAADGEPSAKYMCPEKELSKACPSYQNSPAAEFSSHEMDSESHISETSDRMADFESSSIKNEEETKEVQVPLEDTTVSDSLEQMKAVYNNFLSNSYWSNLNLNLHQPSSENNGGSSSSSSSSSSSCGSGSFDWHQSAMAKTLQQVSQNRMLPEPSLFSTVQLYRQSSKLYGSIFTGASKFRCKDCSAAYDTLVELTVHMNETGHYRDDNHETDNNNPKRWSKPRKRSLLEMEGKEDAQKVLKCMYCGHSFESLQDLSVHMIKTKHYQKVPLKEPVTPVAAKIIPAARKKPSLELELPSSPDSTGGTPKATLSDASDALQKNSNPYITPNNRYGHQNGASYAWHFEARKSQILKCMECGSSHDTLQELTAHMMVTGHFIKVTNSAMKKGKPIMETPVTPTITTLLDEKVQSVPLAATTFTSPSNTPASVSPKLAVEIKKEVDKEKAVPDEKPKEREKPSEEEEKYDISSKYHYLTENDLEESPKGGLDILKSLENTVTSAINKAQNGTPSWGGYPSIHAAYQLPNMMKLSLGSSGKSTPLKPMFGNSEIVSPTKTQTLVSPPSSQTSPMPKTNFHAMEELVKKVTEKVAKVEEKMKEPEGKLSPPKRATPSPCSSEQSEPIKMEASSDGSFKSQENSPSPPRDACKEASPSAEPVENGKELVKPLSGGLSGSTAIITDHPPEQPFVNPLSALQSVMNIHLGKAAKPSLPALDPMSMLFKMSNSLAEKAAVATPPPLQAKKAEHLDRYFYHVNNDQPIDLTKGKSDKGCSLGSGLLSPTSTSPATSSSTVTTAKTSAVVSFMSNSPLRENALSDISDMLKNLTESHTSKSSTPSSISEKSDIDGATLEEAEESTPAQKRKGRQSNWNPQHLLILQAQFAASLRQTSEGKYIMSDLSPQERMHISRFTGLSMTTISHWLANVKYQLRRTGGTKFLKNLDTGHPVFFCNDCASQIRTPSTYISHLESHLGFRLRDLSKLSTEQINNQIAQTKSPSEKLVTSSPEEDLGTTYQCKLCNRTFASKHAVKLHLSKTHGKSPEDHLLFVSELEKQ
# What was measured:
# [1] = biological target: T1, HA-tagged TSHZ3 full length; assay: co-IP; reciprocal: HEK293T cells transiently transfected; immunoprecipitation with anti-HA (3F10) and protein G beads; immunoblot with anti-Flag
# [2] = biological target: T2, TSHZ3 (bait of the yeast two-hybrid screen); assay: two-hybrid; yeast two-hybrid screen with TSHZ3 as bait; 84 independent clones; screen previously reported in ref. 20
# Flag-tagged SOX9 (human) = Flag-tagged SOX9 (human) (UniProt P48436); assay: co-IP; HEK293T cells transiently transfected; lysis buffer 50 mM Tris-HCl pH 7.6, 200 mM NaCl, 1 mM EDTA, 0.25% Na-deoxycholate; anti-Flag agarose M2 beads overnight at 4°C; immunoblot with anti-HA
# GST-SOX9 = GST-SOX9 (UniProt P48436); assay: pull-down; GST fusion protein on glutathione beads (pre-incubated in 1% BSA) incubated overnight at 4°C with in vitro translated 35S-methionine labelled protein; SDS-PAGE and autoradiography; only the target purified
# GST-MYOCD = GST-MYOCD (UniProt Q8VIM5); assay: as above
Molecule,binding [2],binding (Flag-tagged SOX9 (human)),also measured
Flag-tagged SOX9 (from UniProt P48436 1-509),,,binding [1]: binds
SOX9 clone clA45 (amino acids 1-168) (from UniProt Q04887 1-168) (domain or fragment),binds,,
SOX9 clone clA47 (amino acids 1-163) (from UniProt Q04887 1-163) (domain or fragment),binds,,
"HA-tagged TSHZ3 full length (protein, UniProt Q8CGV9 1-1081) MPRRKQQAPRRAAAYVSDELKAAALVEDDVEPEEQAADGEPSAKYMCPEKELSKACPSYQNSPAAEFSSHEMDSESHISETSDRMADFESSSIKNEEETKEVQVPLEDTTVSDSLEQMKAVYNNFLSNSYWSNLNLNLHQPSSENNGGSSSSSSSSSSSCGSGSFDWHQSAMAKTLQQVSQNRMLPEPSLFSTVQLYRQSSKLYGSIFTGASKFRCKDCSAAYDTLVELTVHMNETGHYRDDNHETDNNNPKRWSKPRKRSLLEMEGKEDAQKVLKCMYCGHSFESLQDLSVHMIKTKHYQKVPLKEPVTPVAAKIIPAARKKPSLELELPSSPDSTGGTPKATLSDASDALQKNSNPYITPNNRYGHQNGASYAWHFEARKSQILKCMECGSSHDTLQELTAHMMVTGHFIKVTNSAMKKGKPIMETPVTPTITTLLDEKVQSVPLAATTFTSPSNTPASVSPKLAVEIKKEVDKEKAVPDEKPKEREKPSEEEEKYDISSKYHYLTENDLEESPKGGLDILKSLENTVTSAINKAQNGTPSWGGYPSIHAAYQLPNMMKLSLGSSGKSTPLKPMFGNSEIVSPTKTQTLVSPPSSQTSPMPKTNFHAMEELVKKVTEKVAKVEEKMKEPEGKLSPPKRATPSPCSSEQSEPIKMEASSDGSFKSQENSPSPPRDACKEASPSAEPVENGKELVKPLSGGLSGSTAIITDHPPEQPFVNPLSALQSVMNIHLGKAAKPSLPALDPMSMLFKMSNSLAEKAAVATPPPLQAKKAEHLDRYFYHVNNDQPIDLTKGKSDKGCSLGSGLLSPTSTSPATSSSTVTTAKTSAVVSFMSNSPLRENALSDISDMLKNLTESHTSKSSTPSSISEKSDIDGATLEEAEESTPAQKRKGRQSNWNPQHLLILQAQFAASLRQTSEGKYIMSDLSPQERMHISRFTGLSMTTISHWLANVKYQLRRTGGTKFLKNLDTGHPVFFCNDCASQIRTPSTYISHLESHLGFRLRDLSKLSTEQINNQIAQTKSPSEKLVTSSPEEDLGTTYQCKLCNRTFASKHAVKLHLSKTHGKSPEDHLLFVSELEKQ",,binds,
"in vitro translated TSHZ3fl (protein, UniProt Q8CGV9 1-1081, 35S-methionine labelled) MPRRKQQAPRRAAAYVSDELKAAALVEDDVEPEEQAADGEPSAKYMCPEKELSKACPSYQNSPAAEFSSHEMDSESHISETSDRMADFESSSIKNEEETKEVQVPLEDTTVSDSLEQMKAVYNNFLSNSYWSNLNLNLHQPSSENNGGSSSSSSSSSSSCGSGSFDWHQSAMAKTLQQVSQNRMLPEPSLFSTVQLYRQSSKLYGSIFTGASKFRCKDCSAAYDTLVELTVHMNETGHYRDDNHETDNNNPKRWSKPRKRSLLEMEGKEDAQKVLKCMYCGHSFESLQDLSVHMIKTKHYQKVPLKEPVTPVAAKIIPAARKKPSLELELPSSPDSTGGTPKATLSDASDALQKNSNPYITPNNRYGHQNGASYAWHFEARKSQILKCMECGSSHDTLQELTAHMMVTGHFIKVTNSAMKKGKPIMETPVTPTITTLLDEKVQSVPLAATTFTSPSNTPASVSPKLAVEIKKEVDKEKAVPDEKPKEREKPSEEEEKYDISSKYHYLTENDLEESPKGGLDILKSLENTVTSAINKAQNGTPSWGGYPSIHAAYQLPNMMKLSLGSSGKSTPLKPMFGNSEIVSPTKTQTLVSPPSSQTSPMPKTNFHAMEELVKKVTEKVAKVEEKMKEPEGKLSPPKRATPSPCSSEQSEPIKMEASSDGSFKSQENSPSPPRDACKEASPSAEPVENGKELVKPLSGGLSGSTAIITDHPPEQPFVNPLSALQSVMNIHLGKAAKPSLPALDPMSMLFKMSNSLAEKAAVATPPPLQAKKAEHLDRYFYHVNNDQPIDLTKGKSDKGCSLGSGLLSPTSTSPATSSSTVTTAKTSAVVSFMSNSPLRENALSDISDMLKNLTESHTSKSSTPSSISEKSDIDGATLEEAEESTPAQKRKGRQSNWNPQHLLILQAQFAASLRQTSEGKYIMSDLSPQERMHISRFTGLSMTTISHWLANVKYQLRRTGGTKFLKNLDTGHPVFFCNDCASQIRTPSTYISHLESHLGFRLRDLSKLSTEQINNQIAQTKSPSEKLVTSSPEEDLGTTYQCKLCNRTFASKHAVKLHLSKTHGKSPEDHLLFVSELEKQ",,,binding (GST-SOX9): binds
"in vitro translated N-TSHZ3 (domain or fragment, UniProt Q8CGV9 1-483, 35S-methionine labelled) MPRRKQQAPRRAAAYVSDELKAAALVEDDVEPEEQAADGEPSAKYMCPEKELSKACPSYQNSPAAEFSSHEMDSESHISETSDRMADFESSSIKNEEETKEVQVPLEDTTVSDSLEQMKAVYNNFLSNSYWSNLNLNLHQPSSENNGGSSSSSSSSSSSCGSGSFDWHQSAMAKTLQQVSQNRMLPEPSLFSTVQLYRQSSKLYGSIFTGASKFRCKDCSAAYDTLVELTVHMNETGHYRDDNHETDNNNPKRWSKPRKRSLLEMEGKEDAQKVLKCMYCGHSFESLQDLSVHMIKTKHYQKVPLKEPVTPVAAKIIPAARKKPSLELELPSSPDSTGGTPKATLSDASDALQKNSNPYITPNNRYGHQNGASYAWHFEARKSQILKCMECGSSHDTLQELTAHMMVTGHFIKVTNSAMKKGKPIMETPVTPTITTLLDEKVQSVPLAATTFTSPSNTPASVSPKLAVEIKKEVDKEKAVPDE",,,binding (GST-MYOCD): binds; binding (GST-SOX9): binds
"N-TSHZ3-HA (domain or fragment, UniProt Q8CGV9 1-483) MPRRKQQAPRRAAAYVSDELKAAALVEDDVEPEEQAADGEPSAKYMCPEKELSKACPSYQNSPAAEFSSHEMDSESHISETSDRMADFESSSIKNEEETKEVQVPLEDTTVSDSLEQMKAVYNNFLSNSYWSNLNLNLHQPSSENNGGSSSSSSSSSSSCGSGSFDWHQSAMAKTLQQVSQNRMLPEPSLFSTVQLYRQSSKLYGSIFTGASKFRCKDCSAAYDTLVELTVHMNETGHYRDDNHETDNNNPKRWSKPRKRSLLEMEGKEDAQKVLKCMYCGHSFESLQDLSVHMIKTKHYQKVPLKEPVTPVAAKIIPAARKKPSLELELPSSPDSTGGTPKATLSDASDALQKNSNPYITPNNRYGHQNGASYAWHFEARKSQILKCMECGSSHDTLQELTAHMMVTGHFIKVTNSAMKKGKPIMETPVTPTITTLLDEKVQSVPLAATTFTSPSNTPASVSPKLAVEIKKEVDKEKAVPDE",,binds,

# Now from value to molecule, other results behind:
binding [2],binding (Flag-tagged SOX9 (human)),Molecule,also measured
binds,,SMARCE1/BAF57 (yeast two-hybrid clones) (from UniProt O54941 1-411),
,no binding,"TSHZ3-trunc-HA (domain or fragment, UniProt Q63HK5 183-1081) RMLPEPSLFSTVQLYRQSSKLYGSIFTGASKFRCKDCSAAYDTLVELTVHMNETGHYRDDNHETDNNNPKRWSKPRKRSLLEMEGKEDAQKVLKCMYCGHSFESLQDLSVHMIKTKHYQKVPLKEPVTPVAAKIIPATRKKASLELELPSSPDSTGGTPKATISDTNDALQKNSNPYITPNNRYGHQNGASYAWHFEARKSQILKCMECGSSHDTLQELTAHMMVTGHFIKVTNSAMKKGKPIVETPVTPTITTLLDEKVQSVPLAATTFTSPSNTPASISPKLNVEVKKEVDKEKAVTDEKPKQKDKPGEEEEKCDISSKYHYLTENDLEESPKGGLDILKSLENTVTSAINKAQNGTPSWGGYPSIHAAYQLPNMMKLSLGSSGKSTPLKPMFGNSEIVSPTKNQTLVSPPSSQTSPMPKTNFHAMEELVKKVTEKVAKVEEKMKEPDGKLSPPKRATPSPCSSEVGEPIKMEASSDGGFRSQENSPSPPRDGCKDGSPLAEPVENGKELVKPLASSLSGSTAIITDHPPEQPFVNPLSALQSVMNIHLGKAAKPSLPALDPMSMLFKMSNSLAEKAAVATPPPLQSKKADHLDRYFYHVNNDQPIDLTKGKSDKGCSLGSVLLSPTSTAPATSSSTVTTAKTSAVVSFMSNSPLRENALSDISDMLKNLTESHTSKSSTPSSISEKSDIDGATLEEAEESTPAQKRKGRQSNWNPQHLLILQAQFAASLRQTSEGKYIMSDLSPQERMHISRFTGLSMTTISHWLANVKYQLRRTGGTKFLKNLDTGHPVFFCNDCASQIRTPSTYISHLESHLGFRLRDLSKLSTEQINSQIAQTKSPSEKMVTSSPEEDLGTSYQCKLCNRTFASKHAVKLHLSKTHGKSPEDHLLYVSELEKQ",
